According to PMC12136788:
This is one part of the list.

B1: chr17:6138058:6138059:+_ENSMUSG00000034377_ENSMUST00000152672|mus_hu|FALSE|FALSE (ssRNA)
RNA: GGGAGUUCUACAGUCCGACGAUCAGUGCCAUAGAGGCUAGAAAGAAGGCCCCUUCACUCAAGAGGCAGAAUGUUCCAGCGCUCUUACAGUGGUCCCAGUGUUUGCCCUGGGUGAGUCUUAAAUCCUCUUGCUGACAAAACAGACAACAGAGGAUUGAGCAUCA
B2: chr2:181286759:181286760:+_ENSMUSG00000000826_ENSMUST00000072334|mus_hu|FALSE|FALSE (ssRNA)
RNA: GGGAGUUCUACAGUCCGACGAUCGCUGCACUAACAACAUAGAGAACUAGGAAAGUUCACAAACACUGAGCAGUAAUAUCUAAAGCAGUUUAAAAAUAAAGCCAAAAGGAAGACAAAAAAAUCCCACGUCACUGAGUGGAGACACAACAGAGGAUUGAGCAUCA
B3: chrX:69798090:69798091:-_ENSMUSG00000031343_ENSMUST00000055966|mus_mus|mus_mus_mus_hu_False|58_58 (ssRNA)
RNA: GGGAGUUCUACAGUCCGACGAUCAAGUCCCCGGGUUCUUGUCGUCUUGAUUCCCCUUGACCAGUGGUUCCAGGGAGAAUACUAAUCAGGAAAAGAAUCCCAAGGCUGGUCAUGUAACAGUGACUUGUUUGUGUGAUUAUCAUCCAACAGAGGAUUGAGCAUCA
B4: 3559265_3561159_1031_CDS_ENSMUSG00000021218_ENSMUST00000059515|mouse|control|control (ssRNA)
RNA: GGGAGUUCUACAGUCCGACGAUCAUCUUUUACAUAGCUGGGAUCACAGAUGAGCUGUUUACAGCGAGCAAUCUCUCCUUCGGAUUUUACACCAACCACUUUUCCAUUUUGCACAAUGAUUUCUUCAAUUGGUUUAUUCAACAUCAACAGAGGAUUGAGCAUCA
B5: chrX:20248820:20248821:+_ENSMUSG00000001924_ENSMUST00000001989|mus_mus|FALSE|FALSE (ssRNA)
RNA: GGGAGUUCUACAGUCCGACGAUCGGCAAAGUCAGUCAUCACAAAGUCAGGCUCUACCAGUGAUGCUGGCAAGGAUUUAAAACUAAUCUUUUUCGGUACUUUGACCUGACUGACGAUGCCUCCACGGAUGUAGUCAGAGAAGUUCAACAGAGGAUUGAGCAUCA
B6: chrX:71549400:71549401:+_ENSMUSG00000019087_ENSMUST00000019231|mus_hu|mus_mus_mus_hu_False|1_48 (ssRNA)
RNA: GGGAGUUCUACAGUCCGACGAUCGCAGUAGGAAGAGGGAAGCUCUUCAGUCCAGUGCGCUGCAGGGUGGGAAAGCAACAACACGGAACCAAUACUCCCCUCAACCCCCCCACUGGCACAGGGUCACACAAUCUGGGAAGUGAUCAACAGAGGAUUGAGCAUCA
B7: 98286892_98287012_1828_CDS_ENSMUSG00000036550_ENSMUST00000098473|mouse|control|control (ssRNA)
RNA: GGGAGUUCUACAGUCCGACGAUCCCCAUGCCAUGCAUAGUGCAAAAUAAUGGCAGAGUUAGGAUGGUUUCCAAGGAAAAUUGGCAUCAAAGUAGAGAUGAGUUCAUGGCGUAGGGUGUGCCAGGAAGUGUUGAUUUGAAGUAACAACAGAGGAUUGAGCAUCA
B8: chr1:39494447:39494448:+_ENSG00000168653_ENST00000372967|hu_mus|hu_hu_hu_mus_False|38_48 (ssRNA)
RNA: GGGAGUUCUACAGUCCGACGAUCGCACCGAGCGGCGUUCUUAUAGGGCUGUUCUGCGCUUAGGAACAUAAAGUGCCGGUCCAGGCUAAGGCCGAACCUUUUCUGGAUGUCAAGGAAAGGCAUGGCUCUGCAGUGCCCUUGUCACAACAGAGGAUUGAGCAUCA
B9: chr5:31258465:31258466:-_ENSMUSG00000045302_ENSMUST00000155946|mus_mus|motif|central (ssRNA)
RNA: GGGAGUUCUACAGUCCGACGAUCCCAUGGGCCUCCUUCACAUAAUACAGGCGCUGGGGGAGAAAGCAGUGAGGAAAGCCGGGUUGGAAGCUACCUUCGGGGAAACACGCUCCACAGUCCUAACAGGCUUCCCCUGUGGACUGGCAACAGAGGAUUGAGCAUCA
B10: chr10:33190432:33190433:-_ENSG00000150093_ENST00000302278|hu_mus|hu_hu_hu_mus_True|38_108 (ssRNA)
RNA: GGGAGUUCUACAGUCCGACGAUCUACAUUUUCAAAACCUGCAUGUGAAUAAAACCCUGGCCACAGAGCCCCAAAACUACCCUACUGUGACUAAGAUAAUUGCUACUUGAGCUUGGUGUUGCAAAAUCCGCCUGAGUAGGAUUCCAACAGAGGAUUGAGCAUCA
B11: 32074226_32074800_3202_3pUTR_ENSMUSG00000039262_ENSMUST00000036691|mouse|control|control (ssRNA)
RNA: GGGAGUUCUACAGUCCGACGAUCCAGACGACUCCCGAGACUCAGCACUCAAGUCAACGCCACUAUCUCCCUGGCUGCUCUUAAACCCCUGCUCUGAGGUGCCAGGCUCAGUACUGCUGAAGGCAGUGACAGCUGUCCUCCAUGCAACAGAGGAUUGAGCAUCA
B12: chr2:157385914:157385915:+_ENSMUSG00000067786_ENSMUST00000109526|mus_mus|FALSE|FALSE (ssRNA)
RNA: GGGAGUUCUACAGUCCGACGAUCCAGCCGAUGAUGAGCAGUUCUGCCGAGGCUGCUGCCACUGCGGCCAUGGUUCCGAAAGUGGGUGGGUGGUCGAGAGCAAGGGUUCGCCGAGGUCUACUGGUCUCGGAGUCCGCUGCUGGGCAACAGAGGAUUGAGCAUCA
B13: chr6:114281168:114281169:-_ENSG00000196591_ENST00000368632|hu_hu|hu_hu_hu_mus_True|18_88 (ssRNA)
RNA: GGGAGUUCUACAGUCCGACGAUCUUCCAUUUUUCGGUAUAAACCAUAAUUUAACAGCAAGUUAUGAGUCAUCCGGAUUCUAUGAGGCUUCAUGGGAUGACCCUGGCCAUAAUAAUAAUUUCCAAUAUCACCAUCAUAGUAGUACAACAGAGGAUUGAGCAUCA
B14: chr18:54278284:54278285:-_ENSG00000091164_ENST00000590954|hu_mus|FALSE|FALSE (ssRNA)
RNA: GGGAGUUCUACAGUCCGACGAUCGAAGUCAUUCAUAUUUGUUGCCUGGACUGGAGUACCAAUGAAAGUAAAAUAUGAAAUUCUCGUUGUUUCUUCUUCUCCUUGAUUAGACUGAACAAAUAAAGUUACACUGUUGACAUUCUGCAACAGAGGAUUGAGCAUCA
B15: chr4:57314706:57314707:+_ENSG00000128050_ENST00000264221|hu_mus|FALSE|FALSE (ssRNA)
RNA: GGGAGUUCUACAGUCCGACGAUCCAGAAUUUCAAAAAUAGCUUGUGUGGCAUGACUCAUGAUGUCCACUUCAGUCUGCCCUAUAACAAGGCCAGCAAAACAGAAUUUUGCAGCAAUGAGUUGCUCCUCAGACCACUGUGGAUCCAACAGAGGAUUGAGCAUCA
B16: 107912119_107912325_1280_3pUTR_ENSMUSG00000000001_ENSMUST00000000001|mouse|control|control (ssRNA)
RNA: GGGAGUUCUACAGUCCGACGAUCGGAGAGCGCUAGCUAAGAUUCUGCGUGUUGCUGCCAUUCCUUGGUCCUGUCAUGCGUGCUGCUGACCCAAGAGACAGUAGAUGACAUCUGGUCUCAACACUCCUCCCUGUAAUAGCUUUUCAACAGAGGAUUGAGCAUCA
B17: chr12:72996793:72996794:+_ENSMUSG00000034574_ENSMUST00000085299|mus_mus|FALSE|FALSE (ssRNA)
RNA: GGGAGUUCUACAGUCCGACGAUCAGGGGGCAUGGGCAGCGCCGGCUCCAUUGUCUGAAGUGCAAAGUUGCUAUCAUUCCUAAGCCGAUAUGUGAUUUCUGGAUGGUCAUUGUUUCGGAAACAGCAAAAGAUAAAUGAAAUCCCCAACAGAGGAUUGAGCAUCA
B18: chrX:48760955:48760956:-_ENSG00000102100_ENST00000376521|hu_hu|motif|central (ssRNA)
RNA: GGGAGUUCUACAGUCCGACGAUCUAAAAAACAAACCAAAAAAUCAGAACAAAUUAAUCAAAAAUAAAGAUCCAAUGGCUCGGUUUACAUAUAGCAAAGACAGCCCAGGCAUCUUCCAUGCACACACACACCCCGCCCCGAUACCAACAGAGGAUUGAGCAUCA
B19: chr4:34758383:34758384:-_ENSMUSG00000039967_ENSMUST00000047950|mus_mus|motif|central (ssRNA)
RNA: GGGAGUUCUACAGUCCGACGAUCUUCAUCAUCUGAACCAUCGUUGUCAUUAAACACUAUGAAAUCUGUUGAAUAAAGACGGUUCUUUUUUAUGGGUCGCUGUUCCUGUUUAGCCACAGUAUUAAUAUUAGUCUUUUGAUUUUCCAACAGAGGAUUGAGCAUCA
B20: chr14:78183846:78183847:+_ENSG00000119705_ENST00000557342|hu_hu|hu_hu_hu_mus_False|48_78 (ssRNA)
RNA: GGGAGUUCUACAGUCCGACGAUCUCUCAGAAAUCUUUCUUCAUCAGAUGUUUGAGCUGUUUGCGGAGCCUUUGCUCUUUGAGCUUGAACCUGGACCUAUGGGAGGGAAAGCACUGUCAGAAAAGGUAAUUUUUUUUUUAAAGACAACAGAGGAUUGAGCAUCA
B21: chr14:17255229:17255230:+_ENSMUSG00000017485_ENSMUST00000017629|mus_mus|FALSE|FALSE (ssRNA)
RNA: GGGAGUUCUACAGUCCGACGAUCAACAAAUUCAUCUUCCCCAUCAUUUGUUAUGGGAGAUGCUUUAACUUUCAGUUCUUCUAAAUCAUUACUGUCAUCAGCAGCAGCAGCAUCAUCAUCCUCCUCUUCUGAGAAAUCAAAAGUCAACAGAGGAUUGAGCAUCA
B22: chr14:57741442:57741443:+_ENSG00000053770_ENST00000261558|hu_hu|FALSE|FALSE (ssRNA)
RNA: GGGAGUUCUACAGUCCGACGAUCAGUUUUCCAAGCUGGCUGUUUCUGUGGCUGAGUCACAGAUGCAAAAUUGGUAUUAUCUAAUGAAUUCUGUAAGUUGGCAUCUAAUAAAGUACCAAAUGGACAAGCCUGCAGAAGCAAGUCCAACAGAGGAUUGAGCAUCA

biological target: T1, UNK ZnF1-3 (human, UniProt Q9C0B0 31-174); assay: nsRBNS (natural sequence RNA bind-n-seq); RBNS binding buffer (assumed for nsRBNS): 25 mM Tris pH 7.5, 150 mM KCl, 3 mM MgCl2, 0.01% Triton X-100, 500 ug/ml BSA, 20 U/ml SUPERase-In, 4 C; UNK is unkempt and MSI1 is Musashi-1; names of the RNAs are library labels; protein concentration not given here; high values mean tight binding
T1 sequence: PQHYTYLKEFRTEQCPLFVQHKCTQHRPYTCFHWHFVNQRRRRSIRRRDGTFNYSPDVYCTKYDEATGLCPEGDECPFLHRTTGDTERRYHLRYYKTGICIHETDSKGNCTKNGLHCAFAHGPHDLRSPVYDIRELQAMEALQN

Row | Binder | binding signal
1 | B1 | 0.787 enrichment R
2 | B2 | 2.6 enrichment R
3 | B3 | 0.583 enrichment R
4 | B4 | 1.1 enrichment R
5 | B5 | 0.66 enrichment R
6 | B6 | 1.41 enrichment R
7 | B7 | 2.83 enrichment R
8 | B8 | 0.763 enrichment R
9 | B9 | 1.33 enrichment R
10 | B10 | 0.923 enrichment R
11 | B11 | 1.01 enrichment R
12 | B12 | 0.894 enrichment R
13 | B13 | 0.835 enrichment R
14 | B14 | 1.05 enrichment R
15 | B15 | 0.918 enrichment R
16 | B16 | 0.634 enrichment R
17 | B17 | 1.06 enrichment R
18 | B18 | 2.13 enrichment R
19 | B19 | 0.474 enrichment R
20 | B20 | 1.75 enrichment R
21 | B21 | 1.29 enrichment R
22 | B22 | 0.929 enrichment R
